Among all 44,000 compounds or so, about 340 (0.77%) were called active. Inconclusive results (about 5%) are left out. The call rests on the fitted dose curve; in most records, active means well fitted inhibition curve with a large enough effect; inconclusive means small, poorly fitted or top-dose-only effect; inactive means flat fitted curve, though single readings scatter. The list shows a part of the results.
test: Acumen qHTS Assay for Inhibitors of the mTORC1 Signaling Pathway in MEF (Tsc2-/-, p53-/-) Cells: Sytravon; conditions: phospho-rpS6 immunofluorescence/PI, 24 h; series mostly up to 38.3 µM; activity change, negative = inhibition: at the top concentration;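 further: plate controls were DMSO for no effect and rapamycin for full effect; nearly all actives have a fitted effect of over 50% in size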
Outline: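 Read-out: phospho-S6 Alexa-488 intensity over PI intensity per well, scored as % active cells using thresholds from rapamycin (7.5 nM) and DMSO controls. Tsc2-/-, p53-/- MEFs exposed to compound for 24 h; PI cell count recorded as viability.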

Activity change, negative = inhibition, inactive:
Cc1ccc(NC(=O)CCn2cccn2)cc1Cl 0.152%, CCOc1ccc(CCNC(=O)CN2C(=O)COc3ccc(S(=O)(=O)N4CCC(C)CC4)cc32)cc1 -5.44%, COc1ccc(NC(=O)Cn2c(=O)n(-c3ccccc3)c(=O)c3c4c(sc32)CCCC4)cc1 -9.41%, Cc1cc(C)cc(Nc2cc(-c3ccccc3)nc(C)n2)c1 -15.9%, CCCCN(C)c1nnc(NC(=O)Nc2cccc(C(C)=O)c2)s1 -2.21%, Cc1ccc(NC2=CC(c3ccccc3F)N(c3ccc(C)cc3)C2=O)cc1 (configuration not stated) 1.31%, COC(=O)c1c(NC(=O)c2cc3nc(-c4ccc(OC)cc4)cc(C(F)(F)F)n3n2)sc2c1CCCC2 -0.216%, CCOc1ccccc1NC(=O)C(Cc1ccccc1)NS(=O)(=O)c1ccc2c(c1)oc(=O)n2C (configuration not stated) -6.39%, COc1ccc(-c2cc3nc(C)c(CCC(=O)N4CCN(c5cccc(Cl)c5)CC4)c(C)n3n2)c(OC)c1 -12.4%, O=C(NCc1cccs1)c1ccc2c(c1)N(Cc1ccccc1Cl)C(=O)c1ccccc1S2 1.6%, O=C(CN1C=NS(=O)(=O)c2ccccc21)Nc1ccc(F)cc1 -4.18%, Cc1ccccc1-c1ncnn1-c1sc2c(c1C#N)CCCCC2 0.743%, CC(C)Cn1c(=O)c2ccccc2n2c(CCC(=O)NCc3ccccc3Cl)nnc12 0.658%, CC(=O)NCCNC(=O)CCCc1nnc2n(C)c(=O)c3sccc3n12 -14.9%, COc1ccc(CNC(=O)c2cc3cc(C)ccc3n2C)cc1 -1.83%, CCCCN(CCCC)C(=O)CN(C)S(=O)(=O)c1ccc2c(c1)c(=O)n(C)c(=O)n2C -13.2%, CC(Nc1ccc(-c2nc(-c3ccncc3)no2)cc1[N+](=O)[O-])c1ccccc1 (configuration not stated) 1.74%, O=C(NCc1ccccc1Br)c1ccc2nc(N3CCCCC3)sc2c1 0.237%, Cc1sc2c(c1C)c(=O)n(CCc1ccccc1)c(=O)n2Cc1cccc(F)c1 -2.75%, Cc1ccc(-n2c(=O)c3c(c4cc(C)ccc4n3C)n(CC(=O)NCc3ccccc3Cl)c2=O)cc1 -2.38%, CCOC(=O)c1ccc(CN(Cc2ccccc2)S(=O)(=O)c2ccc(C)cc2)cc1 2.09%, COc1ccc(CCC(=O)NC2CC(=O)N(c3ccc(C)cc3)C2)cc1 (configuration not stated) 0.052%, CCCCOC(=O)c1ccc(Nc2ncnc3[nH]ncc23)cc1 -22.6%, COc1ccc2oc(=O)cc(CN3CCN(c4ccc(F)cc4)CC3)c2c1 -6.74%, CCCCNC(=O)C(CC)Sc1nnc(-c2cccc(F)c2)c(-c2cccc(F)c2)n1 (configuration not stated) -5.66%, Cc1cccc(C(=O)Nc2ccc(-c3nc4ccccc4s3)cc2Cl)c1 -0.19%, Cc1cc(C)cc(N2CC(c3nc(-c4ccccc4C)no3)CC2=O)c1 (configuration not stated) -9.51%, CC(=O)Nc1c(C)nn(-c2ccccc2)c1N1CCC(C(=O)NCc2ccc(Cl)cc2)CC1 0%, CCOC(=O)c1ccc(NC(=O)CN(c2ccc(C)cc2)S(=O)(=O)c2c(C)noc2C)cc1 0.993%, Cc1nc2c(C(=O)NCCc3ccc(Cl)cc3)cnn2c(C)c1Cc1c(F)cccc1Cl 11.2%, Cc1cccc(NC(=O)Cn2c(=O)n(-c3ccccc3Cl)c(=O)c3c(C)c(C(=O)N(C)C)sc32)c1 -2.31%, Cc1ccccc1CNC(=O)C(C)n1nc(C)n2c(cc3occc32)c1=O (configuration not stated) 0.867%, COc1ccc(CC(=O)Nc2nc3c(s2)CC(C(C)(C)C)CC3)cc1 (configuration not stated) -1.82%, Cc1ccc(NC(=O)CN2C(=O)CCSc3ccc(S(=O)(=O)N4CCCC4)cc32)cc1 1.16%, COc1ccc(NC(=O)C2=CC(c3cccs3)=NS(=O)(=O)N2C)cc1 -10.4%, CCc1ccc(-c2nc(CSCC(=O)NCc3ccccc3OC)c(C)o2)cc1 -13.5%, Cc1ccc(-c2nc3c(c(SCC(=O)N4CCCCC4)n2)Cc2cc(C)ccc2O3)cc1 1.12%, CCn1c(CNC(=O)c2ccc(OC)cc2)nnc1SCC(=O)Nc1ccc(OC)cc1 -3.65%, Cc1nn(Cc2noc(C(=O)NCc3ccc(F)cc3)n2)c(C)c1Br 2.89%, O=C(NCCc1ccccc1)c1ccc2c(c1)N(Cc1ccccc1Cl)C(=O)c1ccccc1S2 2.39%, COc1ccc(-c2nc3scc(CCNS(=O)(=O)c4ccc(F)cc4F)n3n2)cc1OC -16.1%, COc1ccccc1CNC(=O)C(Cc1ccccc1)NS(=O)(=O)c1ccc2c(c1)oc(=O)n2C (configuration not stated) 0.128%, CCOC(=O)c1cccc(NC(=O)CSc2ncc3c(n2)-c2ccccc2N(C)S3(=O)=O)c1 0%, CCOc1ccc(CC(=O)Nc2ccc3nc(N4CCCCC4)cc(C)c3c2)cc1OCC -8%, O=C1CC(c2nc3ccccc3n2CCCCOc2ccccc2)CN1c1ccccc1Cl (configuration not stated) -1.87%, CC1CCCCN1Cc1c(O)ccc2c(=O)c(-c3cccc(Cl)c3)c(C(F)(F)F)oc12 (configuration not stated) 2.44%, CCc1nnc(NC(=O)CSc2nc3c([nH]c4ccccc43)c(=O)n2-c2cc(C)cc(C)c2)s1 0.58%, Clc1cccc(CNc2ncnc3c2nc2n3CCCC2)c1 3.53%, Cc1nnc(SCc2cc(=O)n3c(C)cccc3n2)s1 -7.48%, COc1ccc(-n2ncc3c(N4CCN(c5cccc(C)c5)C(C)C4)ncnc32)cc1 (configuration not stated) -4.42%, CCOc1ccc(Cn2c(=O)oc3ccccc32)cc1 -6.61%, Cc1ccc(-c2noc(COc3ccc(Br)c(C)c3)n2)cc1 2.04%, COc1ccc(Cl)cc1NC(=O)CCc1nc(-c2ccccc2F)no1 -8.65%, NS(=O)(=O)c1ccc(NC(=O)CCn2c(=O)oc3ccccc32)cc1 -4.51%, Cc1c(C(=O)N2CCCC2)oc2c1-c1nn(CC(=O)NCc3cccc(Br)c3)cc1CC2 -5.3%, Cc1ccc(-n2nnc3c(sc4nc(C)c(C)cc43)c2=O)cc1Cl -11.4%, Cc1ccc(C)c(NC(=O)C2CCCN(S(=O)(=O)c3c(C)noc3/C=C/N(C)C)C2)c1 (configuration not stated) -25.6%, COc1ccc(CSc2nc3ncccc3[nH]2)cc1 2.87%, Cn1c(=O)oc2cc(S(=O)(=O)CCC(=O)NCc3ccccc3)ccc21 6.98%, CCOc1ccc(N2CC(c3nc(-c4cc(OC)c(OC)c(OC)c4)no3)CC2=O)cc1 (configuration not stated) 5.78%, CCOc1ccc(N(C)S(=O)(=O)c2ccc3c(c2)C(C)(C)C(=O)N3C)cc1 -1.64%, COc1cccc(N2CC(NC(=O)c3ccc(S(=O)(=O)N4CCCC4)cc3)CC2=O)c1 (configuration not stated) 3.96%, O=C(NC1CCCC1)c1c[nH]c2ccc(S(=O)(=O)Nc3cccc(C(F)(F)F)c3)cc2c1=O -19.7%, CCN(c1ccccc1)S(=O)(=O)c1nnc(NC(=O)COc2ccc(OC)cc2)s1 -1.08%, CCOC(=O)c1c(C)oc2nc(C)nc(NCC3CCN(Cc4ccc(Cl)cc4)CC3)c12 -16.8%, CC(=O)OCC#CCSc1nnc(-c2cccc(Br)c2)o1 3.45%, COc1ccc(-c2nc3n(n2)C(c2ccc(OC)cc2)C(C(=O)Nc2cccnc2)=C(C)N3)cc1 (configuration not stated) 3.68%, CCOC(=O)c1[nH]c(C)c(CCC(=O)N2CCN(c3ccccc3)CC2)c1C -1.45%, COCCNC(=O)C1CCN(S(=O)(=O)c2ccc3c(c2)CCCN3C(C)=O)CC1 0.0433%, CCn1c(CN2CCC(C)CC2)nc2cc(NC(=O)c3ccccc3[N+](=O)[O-])ccc21 -5.16%, Cc1ccc(C)c(Cn2c(=O)c3c(nc4n3CCN4c3ccc(F)cc3)n(C)c2=O)c1 8.22%, CC(=O)NCCNC(=O)CCCc1nnc2n(CCC(C)C)c(=O)c3sccc3n12 1.07%, CCOc1ccc(-n2c(Cc3ccccc3)nnc2SCc2nc(-c3ccccc3C)no2)cc1 -6.12%, CCc1ccc(OC(=O)CSc2nnc(-c3ccc4c(c3)OCO4)o2)cc1 0.0777%, CCS(=O)(=O)N1CCc2cc(C(=O)N3CCN(c4cccc(C(F)(F)F)c4)CC3)ccc21 -8.81%, Cc1ccc(NC(=O)C(=O)NCC(c2cccnc2)N2CCOCC2)cc1C (configuration not stated) -16.3%, CCOCCCNC(=O)C(c1ccc(OC)cc1)N(Cc1cccs1)C(=O)c1ccc(NC(C)=O)cc1 (configuration not stated) 9.73%, Cc1ccc(C(=O)c2oc3ccccc3c2NC(=O)c2cc(=O)c3ccccc3o2)cc1 -1.08%, Fc1cccc(-c2nc(-c3ccncc3)no2)c1 -3.57%, COc1cccc(-c2cn3c(n2)sc2cc(C(=O)NCc4cccs4)ccc23)c1 6.89%, COc1ccc(CNC(=O)Cn2ccc3cc(S(=O)(=O)N4CCCCCC4)ccc32)cc1OC -5.74%, COc1ccc2oc(=O)cc(CN3CCN(C(=O)c4ccccc4F)CC3)c2c1 -2.96%, CC(=O)Nc1ccc(NC(=O)CC2Sc3ccccc3NC2=O)cc1 (configuration not stated) 1.03%, Cc1ccc(Cl)cc1N1CCN(C(=O)c2cc(S(=O)(=O)N3CCC(C)CC3)cn2C)CC1 -7.48%, CCOc1ccc(CNS(=O)(=O)c2ccc3[nH]c4c(c3c2)CCCC4)cc1OC -16%, Cc1c(CNCc2ccc(Cl)cc2)c(C(=O)O)c(C)n1Cc1ccc(F)cc1 5.16%, COc1ccc(NC(=O)CSc2nc3nc(C)cc(C)n3n2)cc1 -0.638%, CCCN(CCC)CCCNC(=O)C1CCC(CNS(=O)(=O)c2ccc(NC(C)=O)cc2)CC1 (configuration not stated) -5.06%, COc1cccc(CNC(=O)CCc2nnc3n(C)c(=O)c4sccc4n23)c1 2.11%, COc1ccc(NC(=O)Cn2c(CCC(=O)O)ccc2-c2ccccc2)cc1Cl 4.67%, CCOC(=O)Cc1ccc(NC(=O)n2ncc3c(C)cccc32)cc1 -2.25%, CCOC(=O)c1c(C)oc2nc(C)nc(Nc3cccc(OC)c3)c12 -5.49%, CCOc1ccc(CC(=O)Nc2c(C(=O)c3ccc(F)cc3)oc3ccccc23)cc1OCC -2.27%, COc1ccc(C(CNC(=O)COc2ccc(C)c(C)c2)N2CCCCC2)cc1 (configuration not stated) -14.3%, COC(=O)c1ccc(C2Nc3c(C)cc(C)cc3C3C=CCC32)cc1 (configuration not stated) -17%, Cc1ccccc1CSc1cn(CCNC(=O)c2cccs2)c2ccccc12 -14.1%, CCC(O)c1nc2ccccc2n1Cc1cccc(Cl)c1 (configuration not stated) 2.23%
